# Results taken from article PMC4336329 (PLoS ONE, 2015).
# The whole screen tested about 310,000 compounds, of which about 2,200 (0.71%) showed an effect of 50% or more. The effect is printed as a negative number. The list shows a part of the results.
# Molecular target: human ether-à-go-go-related gene (hERG) potassium channel (human, UniProt Q12809)
# Test: primary screen, population patch clamp on CHO cells stably expressing hERG
# Chain of human ether-à-go-go-related gene (hERG) potassium channel (Q12809 whole entry, looked up): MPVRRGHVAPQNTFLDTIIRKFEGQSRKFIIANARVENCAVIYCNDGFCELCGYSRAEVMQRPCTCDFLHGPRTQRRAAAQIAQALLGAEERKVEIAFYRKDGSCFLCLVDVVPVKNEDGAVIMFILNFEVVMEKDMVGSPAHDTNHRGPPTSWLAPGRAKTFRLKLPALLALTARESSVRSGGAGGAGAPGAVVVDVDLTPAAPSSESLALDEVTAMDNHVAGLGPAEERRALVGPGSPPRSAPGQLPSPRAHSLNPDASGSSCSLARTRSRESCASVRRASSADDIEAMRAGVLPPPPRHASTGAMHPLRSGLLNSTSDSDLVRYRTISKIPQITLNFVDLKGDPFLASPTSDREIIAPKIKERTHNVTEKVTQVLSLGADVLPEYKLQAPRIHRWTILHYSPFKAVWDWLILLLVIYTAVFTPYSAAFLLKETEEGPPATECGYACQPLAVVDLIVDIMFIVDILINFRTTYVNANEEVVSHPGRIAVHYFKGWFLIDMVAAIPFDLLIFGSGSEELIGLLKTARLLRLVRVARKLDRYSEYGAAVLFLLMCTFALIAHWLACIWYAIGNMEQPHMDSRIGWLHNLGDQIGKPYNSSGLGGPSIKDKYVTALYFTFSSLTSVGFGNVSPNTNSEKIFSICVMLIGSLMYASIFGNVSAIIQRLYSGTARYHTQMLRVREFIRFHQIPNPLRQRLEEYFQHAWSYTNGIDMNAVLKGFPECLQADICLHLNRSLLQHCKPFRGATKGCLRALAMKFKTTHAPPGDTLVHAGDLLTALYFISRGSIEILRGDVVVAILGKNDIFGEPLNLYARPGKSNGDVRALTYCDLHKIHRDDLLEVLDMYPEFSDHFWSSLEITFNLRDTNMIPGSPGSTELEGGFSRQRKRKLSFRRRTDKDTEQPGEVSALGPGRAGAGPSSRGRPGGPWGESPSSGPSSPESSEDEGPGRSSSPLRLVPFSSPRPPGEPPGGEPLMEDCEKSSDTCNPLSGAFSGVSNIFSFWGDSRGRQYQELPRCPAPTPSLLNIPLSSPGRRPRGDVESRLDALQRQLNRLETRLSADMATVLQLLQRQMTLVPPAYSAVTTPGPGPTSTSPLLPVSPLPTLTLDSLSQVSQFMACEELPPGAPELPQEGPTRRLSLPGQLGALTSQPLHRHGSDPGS
row,SMILES,"hERG current change (%, negative = inhibition) at 1uM"
1,COc1ccc(-c2c[n+](CC(=O)N3c4ccccc4Sc4ccccc43)c3n2CCC3)cc1.[Cl-],10.4%
2,CNS(=O)(=O)c1ccc(C(=O)NCC(=O)NC(C)c2cccs2)cc1 (stereo not shown),2.15%
3,O=C(CSc1nc(-c2ccc(F)cc2)cs1)Nc1ccccn1,16%
4,O=C(Nc1ccc2c(c1)OCO2)c1cc(-c2cccnc2)nc2ccccc12,12.8%
5,Cc1ccc(S(=O)(=O)N2CCC(=O)N(CCOC(=O)Nc3ccc(F)cc3)CC2)cc1,-13.8%
6,CCOc1ccc(C(=O)Nc2ccccc2OC(F)F)cc1,8.71%
7,CCn1c2ccccc2c2cc(NC(=O)C(=O)NCC3CCCO3)ccc21 (stereo not shown),4.03%
8,Cc1ccc(Cn2ccc(NC(=O)c3cc(-c4ccco4)on3)n2)cc1,3.32%
9,O=C(Nc1cccc(C(F)(F)F)c1)C1CCCN(S(=O)(=O)c2cnc[nH]2)C1 (stereo not shown),-1.08%
10,COc1ccc(S(=O)(=O)Nc2ccccc2C(=O)N2CCOCC2)cc1C,7.95%
11,Cc1cc(C)nc(Nc2ncc(O)n2-c2ccccc2)n1,13.8%
12,CCS(=O)(=O)N1N=C(c2ccc(NS(C)(=O)=O)cc2)CC1c1ccccc1 (stereo not shown),-3.64%
13,COc1ccc2nc(SCC(=O)Nc3ccccc3OC)[nH]c2c1,13.6%
14,CCc1nnc(NC(=O)CCC(=O)N2CCN(c3cccc(Cl)c3)CC2)s1,12.2%
15,CC(=O)Nc1nc(COc2ccccc2)cs1,2.62%
16,CCOC(=O)CN(C)Cc1c[nH]c2ccccc12,13.1%
17,CN(Cc1ccsc1)C(=O)CCc1nnc(CCCc2ccccc2)o1,2.61%
18,COc1cc2c(cc1NC(=O)CSc1ccc(Cl)cc1)oc1ccccc12,2.51%
19,CCOC(=O)c1c(NC(=O)c2ccc(Cl)cc2)csc1C,3.47%
20,C#CC[N+](C)(C)CC#Cc1ccc(C)cc1.[Br-],11.6%
21,CCOc1ccc2[nH]c3nc(SCC(=O)NCC4CCCO4)nnc3c2c1 (stereo not shown),9.57%
22,CC1C(=O)N2CCCc3cc(NC(=O)c4ccccc4C(F)(F)F)cc1c32 (stereo not shown),3.69%
23,O=C(NCCN1CCOCC1)c1ccc(N2CCCC2)c([N+](=O)[O-])c1,-2.75%

row,SMILES,"hERG current change (%, negative = inhibition) at 1uM"
1,N/C(=N\OC(=O)c1ccccc1)c1ccccn1,5.7%
2,O=C(CNS(=O)(=O)c1ccc(C(=O)N2CCOCC2)cc1)N1CCOCC1,6.3%
3,O=C(O)CSc1nnc2c(n1)[nH]c1ccccc12,6.46%
4,CCCc1nnc(NC(=O)CCC(=O)N2CCN(Cc3ccccc3)CC2)s1,5.03%
5,Cc1cc(C(=O)N/N=C/c2ccccc2[N+](=O)[O-])c(C)o1,21.8%
6,CCOC(=O)c1c(C)n(C)c2cc(Br)c(O)c(O)c12,8.58%
7,O=C(CCSc1nnc(-c2ccncc2)o1)Nc1ccc(Cl)cc1,-2.1%
8,CCOC(=O)c1cc(-c2cccs2)nn1CCC#N,6.38%
9,Cc1ccccc1CSCCNC(=O)CN(c1ccc2c(c1)OCO2)S(C)(=O)=O,2.72%
10,CC1Oc2ccccc2N(CC(=O)Nc2ccc(F)cc2)C1=O (stereo not shown),6.62%
11,O=c1cc(-c2ccc(F)cc2)[nH][nH]1,13.7%
12,O=C(O)C1C2C=CC(C2)C1C(=O)OCC1CCCO1 (stereo not shown),-0.788%
13,COc1ccc(NC(=O)CSc2nc(N)c(-c3ccccc3)c(=O)[nH]2)cc1,5.64%
14,COc1cccc(C2/C(=C(\O)c3ccc4c(c3)OCCO4)C(=O)C(=O)N2Cc2cccnc2)c1 (stereo not shown),14.6%
15,CCc1noc(C)c1C(=O)Nc1cc(S(=O)(=O)N2CCCCC2)ccc1N(C)C,4.54%
16,O=C(C[N+]1(CC#Cc2ccccc2)CCCCC1)c1ccccc1.[Br-],9.38%
17,Cc1nc(C#N)c(NCc2ccc3c(c2)OCO3)o1,13%
18,Cc1cc(C(=O)NCCc2ccc(Cl)cc2)c(C)o1,15%
19,Nc1c(-c2ccccc2)cnn1-c1ccc(C(=O)O)cc1,0.454%
20,O=C(COC(=O)Cn1cc(C(F)(F)F)ccc1=O)Nc1ccccc1,16.4%
21,COc1ccccc1-c1noc(-c2ccccc2C(=O)NCc2ccco2)n1,5.15%
22,CSc1cccc(NC(=O)Nc2ccccc2)c1,0.861%
23,CN(C)/C=N/c1ncc(C(=O)c2ccc(Cl)cc2Cl)s1,-4.09%

row,SMILES,"hERG current change (%, negative = inhibition) at 1uM"
1,O=C(Nc1ccccc1)C1CCN(S(=O)(=O)c2ccc3c(c2)OCCO3)CC1,-0.723%
2,COCCN(C(=O)CCC(=O)Nc1nccs1)C(C(=O)NC(C)(C)C)c1ccc(Cl)cc1 (stereo not shown),4.63%
3,CN(c1nc2nonc2nc1NC1CC1)C1CCOC1 (stereo not shown),16.5%
4,CC(CN1C(C)CCCC1C)OC(=O)c1ccccc1Cl (stereo not shown),-0.233%
5,CCc1ccc(/C=N/NC(=O)c2cc(-c3cccc([N+](=O)[O-])c3)n[nH]2)cc1,-0.852%
6,CN1CCN(S(=O)(=O)c2ccc(Cc3ccc(S(=O)(=O)N4CCN(C)CC4)cc3)cc2)CC1,14.2%
7,Cc1nn(Cc2ccccc2)c(C)c1C(=O)NC1CCCc2ccccc21 (stereo not shown),9.54%
8,CN(Cc1c(C(=O)N/N=C/c2ccc(O)cc2)nnn1-c1nonc1N)C1CCCCC1,8.94%
9,Cc1cccc(OCCC(=O)OC(C)C(=O)Nc2ccc(Cl)cn2)c1 (stereo not shown),-9.01%
10,CN1CCN(CCCNC(=O)c2cc3c(=O)oc4ccccc4c3s2)CC1,4.39%
11,CCOc1ccc2noc3c2c1C(=O)c1ccccc1-3,5.69%
12,COCCCN1CC(=O)N2C(c3cccc(OC)c3)c3[nH]c4ccccc4c3C[C@H]2C1=O (stereo partly shown),14%
13,O=C(CCSCc1ccc(Cl)cc1)NCc1cccnc1,6.09%
14,NC(=S)Nc1nc2ccccc2[nH]c1=O,10.8%
15,O=C(/C(=N\Nc1ccc([N+](=O)[O-])cc1)Sc1nnnn1-c1ccccc1)c1ccccc1,7.63%
16,O=C(Cc1ccccc1)N1CCC(c2nc3ccccc3[nH]2)CC1,-4.82%
17,CCCn1c(SCC(=O)N2CCCC(C)C2)nnc1-c1ccccn1 (stereo not shown),5.2%
18,O=C(CC(C(=O)N1CCc2ccccc21)n1ccnc1)N1CCc2ccccc2C1 (stereo not shown),-11.4%
19,COc1cc(NS(=O)(=O)c2cc3[nH]c(=O)c(=O)[nH]c3cc2C)cc(OC)c1OC,1.69%
20,O=C(CN1C(=O)C2CCCCC2C1=O)Nc1nccs1 (stereo not shown),12.3%
21,Cn1ncc(Br)c1C(=O)N1CCOCC1,2.71%
22,CC(C)Oc1ccc(C(=O)/C=C2/C(=O)Nc3ccccc32)cc1,12.3%
23,O=C(/C=C/c1ccc(-c2ccccc2)o1)c1ccccc1,10.1%

row,SMILES,"hERG current change (%, negative = inhibition) at 1uM"
1,N#C/C(=C(/O)c1cccs1)c1nnc2n1CCCCC2,3.57%
2,Cc1ccc(S(=O)(=O)CCC(=O)OCc2ccccc2F)cc1,16.5%
3,CCOc1ccccc1N(CC(=O)Nc1ccc(S(=O)(=O)N2CCOCC2)cc1)S(=O)(=O)c1ccc(Cl)cc1,-0.46%
4,CN(C)c1ccc(C(=O)Nc2cccc(S(=O)(=O)N3CCCC3)c2)cc1,7.09%
5,Cc1ccc(-n2ncc3c(=O)n(CC#N)cnc32)cc1,2.82%
6,Cc1ccc(N2CC(c3nc4ccccc4[nH]3)CC2=O)c(C)c1 (stereo not shown),9.18%
7,CC(C)c1cc(C(F)(F)F)n2nc(C(=O)O)cc2n1,-1.95%
8,O=C1C2C3C=CC(C3)C2C(=O)N1CCC(=O)N1CCc2ccccc21 (stereo not shown),-2.62%
9,Cl.NCCNC(=O)c1ncsc1-c1cccc(F)c1,12.7%
10,COc1ccc(NC(=O)C(c2ccc(C)cc2)N(C)C(=O)Cc2cccs2)cc1 (stereo not shown),7.63%
11,O=C(CCS(=O)(=O)c1ccc(Cl)cc1)Nc1ccc(F)cc1,13.4%
12,Cc1ccc(NC(=O)/C=C/c2ccc3c(c2)OCO3)cc1S(=O)(=O)N1CCOCC1,5.88%
13,Cc1cc(C)n(S(=O)(=O)c2ccc3oc(=O)ccc3c2)n1,8.16%
14,Cc1cc(C)nc(NC(=O)Nc2ccc(F)cc2F)n1,13.4%
15,CCc1c(C)nc2ncnn2c1N1CCN(S(=O)(=O)c2ccc(OC)cc2)CC1,-0.7%
16,Cn1c(=O)c2c(=O)cc(NNC(=O)CC#N)[nH]c2n(C)c1=O,10.8%
17,CC1=CC(C)C2(COC(=O)Nc3ccccc3)COC(C)C1C2C (stereo not shown),9.9%
18,O=C(CCC(=O)Nc1ccc(Br)cc1)N/N=C/c1ccc(F)cc1,4.49%
19,Cc1ccc(C(C)C)c(OCCN)c1.Cl,15.1%
20,COc1cccc(C(=O)CC(=O)C(=O)Nc2ccc([N+](=O)[O-])cc2C)c1,12.7%
21,COc1ccccc1N1CCN(Cc2ccc(OC)c3ccccc23)CC1,4.28%
22,Cc1cccc(N=C2NN=C(c3ccc4c(c3)OCCO4)CS2)c1,-1.6%
